# Laboratory results: the RNAGym collection of RNA variant scans (doi:10.1093/nar/gkz1192)
# The source gives no read counts; variants with many changes may rest on few reads.
# B1: CPEB3 Ribozyme (parent)
# chain: UAACAGGGGGCCACAGCAGAAGCGUUCACGUCGCAGCCCCUGUCAGAUUCUGGUGAAUCUGCGAAUUCUGCUGUAUAUCUC
# Variants of: B1
# Experiment: self-cleavage, relative activity (ratio to wild type); higher = more cleavage; in vitro, sequencing
# Outline: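 Libraries of CPEB3 self-cleaving ribozyme mutants came from rounds of error-prone PCR and carried barcodes, which DNA sequencing matched to variants. In vitro transcription used T7 RNA polymerase at 37°C for 5 hours, with a further 15 min in DNase I before EDTA stopped the reaction; the ribozymes cleaved during both steps. The RNA was reverse transcribed with template switching and sequenced on Illumina. Relative activity is the cleaved/total read fraction of a variant divided by that of the unmutated ribozyme, averaged over three batches with at least 5 reads.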
row,Variant,self-cleavage
1,UAACAGGGGGCCACAGCAGAAGCGCUCACGUCGCAGCCCCUGUCAGAUUCUGGUGAGUCUGCGUAUUCUGCUGUACAUCUC [U25C A57G A64U U76C],0.42
2,UAACAGGGGGCCACAGCAGAAGCGCUCACGUCGCAGCCCCUGUCGGAUUCUGGUGUAUCUGCGAGUUCUGCUGUAUACCUC [U25C A45G A56U A65G U78C],0.08
3,UAACAGGGGGCCACAGCAGAAGCGCUCACGUCGCUGCCCCCGUCUGAUUCUGGUGAACCUGCGGAUUCUGCUGUAUAUCUC [U25C A35U U41C A45U U58C A64G],0.16
4,UAACAGGGGGCCACAGCAGAAGCGCUCUCGAAGCAGCCCCUGUCAGAUUCUGGUGAAUCUGCGAAUUCUGCUGUAUAUCUC [U25C A28U U31A C32A],0.12
5,UAACAGGGGGCCACAGCAGAAGCGCUCACGUCGCAGCCCCUGUCUGGUUCUGGUGAAUCUGCGAAUUCUGCUGUAUAUCUC [U25C A45U A47G],0.04
6,UAACAGGGGGCCACAGCAGAAGCGCUCACGUCGCUGCCCCUGUCAGAUUCUGGUGAAUCCGCGAAUUCUGCUGUAUAUCUC [U25C A35U U60C],0.15
7,UAACAGGGGGCCACAGCAGAAGCGCUCACGUCGCAGCCCCUGUCAGAUUCUGGUGAGCCUGCGAAUUCUGCUGUAUAUCUC [U25C A57G U58C],0.43
8,UAACAGGGGGCCACAGCAGAAGCGCUCACGUCGCAGCCCCUGUCAGAUUCUGGUGAAUCUGCGUAUUCUGCAGUAUAUCUC [U25C A64U U72A],0.14
9,UAACAGGGGGCCACAGCAGAAGCGCUCACGUCGCGGCCCCUGUCAGAUUCCGGUGGAUCUGCGAGUUCUGCUGGAUAUCUC [U25C A35G U51C A56G A65G U74G],0.13
10,UAACAGGGGGCCACAGCAGAAGCGCUCGCGACGCAGCCCCCGUCAGAUUCUGGUGAAUCUGCGAAUUCUGCAGUAUAUCUC [U25C A28G U31A U41C U72A],0.09
11,UAACAGGGGGCCACAGCAGAAGCGAUCACGUCGCAGCCCCUGUCAGAUCCUGGUGAAUCUGCGAAUUCUGCUGUAUUUCUC [U25A U49C A77U],0.1
12,UAACAGGGGGCCACAGCAGAAGCGCUCGCGUCGCAGCCCCUGUCAGACUCUGGUGAAUCUGCGGAUUCUGCUGUAUAACUC [U25C A28G U48C A64G U78A],0.06
13,UAACAGGGGGCCACAGCAGAAGCGCUCACGUCGCAGCCCCUGUCGGAUUCUGGUGAAUCUGCGAAUCCUGCUGUAUAUCUC [U25C A45G U67C],0.14
14,UAACAGGGGGCCACAGCAGAAGCGCUCACGUCGCAGCCCCUGUCAGAUUCUGGUGAAUCUGCGGAGUCUGCUGUAUAACCC [U25C A64G U66G U78A U80C],0.47
15,UAACAGGGGGCCACAGCAGAAGCGCUCACGUCGCGGCCCCUGUCAGAAUCUGGUGAAUCUGCGAAUUCUGCUGUAUAUCUC [U25C A35G U48A],0.35
16,UAACAGGGGGCCACAGCAGAAGCGCUCACGUCGCUGCACCUGUCAGAUCCUGGUGAAUCUGCGAAUUCUGAUGUAUAUCUC [U25C A35U C38A U49C C71A],0.13
17,UAACAGGGGGCCACAGCAGAAGCGCUCACGUCGCAGCCCCUGUCAGCUUCUGGCGAGUCUGCGAAUUCAGCUGUAUAUCUC [U25C A47C U54C A57G U69A],0.13

row,Variant,self-cleavage
1,UAACAGGGGGCCACAGCAGAAGCGCUCACGUCGCAGCCCCUGUCAGAUUCUGGUGGAUCUGUGGAUUCUGCUGUAUACCUC [U25C A56G C62U A64G U78C],0.07
2,UAACAGGGGGCCACAGCAGAAGCGCUCUCGUCGCAGCCCCUGUCAGAUUCCGGUGAAUCUGCGAAUUCUGCCGUAUAUCUC [U25C A28U U51C U72C],0.1
3,UAACAGGGGGCCACAGCAGAAGCGCUCUCGUCGCAGCCCCUGUCAGAUUCUGGUGAAUCCGCGAACUCUGCUGUACAACUC [U25C A28U U60C U66C U76C U78A],0.05
4,UAACAGGGGGCCACAGCAGAAGCGAUCACGUCGCAGCCCCUGUCAGAGUCUGGUGGAUCUGCGGAUUCUGCUGCAAAUCUC [U25A U48G A56G A64G U74C U76A],0.08
5,UAACAGGGGGCCACAGCAGAAGCGCUCUCGUCUCAGCCCCUGUCAGAUUCAGGUGAAUCAGCGAAUUCUGCUGUAUAUCUC [U25C A28U G33U U51A U60A],0.08
6,UAACAGGGGGCCACAGCAGAAGCGCUCACGUCGCAGCCCCUGUCAGAUUCUGGUGAAUCUGCGAGUUCUGCUGUAUGUCUC [U25C A65G A77G],0.22
7,UAACAGGGGGCCACAGCAGAAGCGCUCACGUCGCAGCCCCUGUCAGAUUCUGGUGAAUCUGCGAGUUCUGCCGUAUAUCCC [U25C A65G U72C U80C],0.41
8,UAACAGGGGGCCACAGCAGAAGCGCUCGCGUCGCAGCCCCUGUCAGAUUCUGGUGAAUCUGCGAAUUCUGCUGUAUACCUC [U25C A28G U78C],0.14
9,UAACAGGGGGCCACAGCAGAAGCGCUCACGUCGCAGCCCCUGUCAGGUUCUGGUGAACCUGCGAAUUCUGCUGUAUAUCUC [U25C A47G U58C],0.29
10,UAACAGGGGGCCACAGCAGAAGCGAUCACGUCGCAGCCCCUGUCAGAUUCCGGUGAAUCUGCGAAUUCUGCUGUACAUCUC [U25A U51C U76C],0.13
11,UAACAGGGGGCCACAGCAGAAGCGCUCACGUCGCGGUCCCUGUCAGAUUCUGGUGAAUCUGCGAAUUCUGCUGUAUAUCUC [U25C A35G C37U],0.15
12,UAACAGGGGGCCACAGCAGAAGCGCUCACGUCGCGGCCCCUGUCAGAUUCUGGUGAAUCUGCGAAUUCUGCUGUAUAUCAC [U25C A35G U80A],0.31
13,UAACAGGGGGCCACAGCAGAAGCGCUCACGUCGCCGCCCCGGUCAGAUUCUGGUGAAUCUGCGAAUUCUGCUGUAUAUCUC [U25C A35C U41G],0.3
14,UAACAGGGGGCCACAGCAGAAGCGCUCACGUCGCGGCCCCUGUCAGAUUCUGGUGAAUCUGCGAAUUCUGCUGUGUAUCUC [U25C A35G A75G],0.24
15,UAACAGGGGGCCACAGCAGAAGCGCUCACGUCGCAGCCCCUGUCAGGUUCUGGUGAAUCUGCGAAUUCUGCUGUAUCUCUC [U25C A47G A77C],0.06
16,UAACAGGGGGCCACAGCAGAAGCGCUCACGUCGCAGCCCCUGUCAGAUUCUGGUGUAUCUGCGAAUUCUGCUGAAUAUCUC [U25C A56U U74A],0.21
17,UAACAGGGGGCCACAGCAGAAGCGCUCGCGUCGCAGCCCCUGUCAGAUCCAAGUGAAUCUGCGAAUUCUGCCGCAUAUCUC [U25C A28G U49C U51A G52A U72C U74C],0.06
